Test results as given in PMC4336329 (PLoS ONE, 2015).
Hit rate of the full screen: of about 310,000 compounds, about 2,200 (0.71%) showed an effect of 50% or more. Effects have a minus sign here. The list shows a part of the results.

molecular target: human ether-à-go-go-related gene (hERG) potassium channel (human, UniProt Q12809); assay: primary screen, population patch clamp on CHO cells stably expressing hERG
Sequence (Q12809 whole entry, looked up): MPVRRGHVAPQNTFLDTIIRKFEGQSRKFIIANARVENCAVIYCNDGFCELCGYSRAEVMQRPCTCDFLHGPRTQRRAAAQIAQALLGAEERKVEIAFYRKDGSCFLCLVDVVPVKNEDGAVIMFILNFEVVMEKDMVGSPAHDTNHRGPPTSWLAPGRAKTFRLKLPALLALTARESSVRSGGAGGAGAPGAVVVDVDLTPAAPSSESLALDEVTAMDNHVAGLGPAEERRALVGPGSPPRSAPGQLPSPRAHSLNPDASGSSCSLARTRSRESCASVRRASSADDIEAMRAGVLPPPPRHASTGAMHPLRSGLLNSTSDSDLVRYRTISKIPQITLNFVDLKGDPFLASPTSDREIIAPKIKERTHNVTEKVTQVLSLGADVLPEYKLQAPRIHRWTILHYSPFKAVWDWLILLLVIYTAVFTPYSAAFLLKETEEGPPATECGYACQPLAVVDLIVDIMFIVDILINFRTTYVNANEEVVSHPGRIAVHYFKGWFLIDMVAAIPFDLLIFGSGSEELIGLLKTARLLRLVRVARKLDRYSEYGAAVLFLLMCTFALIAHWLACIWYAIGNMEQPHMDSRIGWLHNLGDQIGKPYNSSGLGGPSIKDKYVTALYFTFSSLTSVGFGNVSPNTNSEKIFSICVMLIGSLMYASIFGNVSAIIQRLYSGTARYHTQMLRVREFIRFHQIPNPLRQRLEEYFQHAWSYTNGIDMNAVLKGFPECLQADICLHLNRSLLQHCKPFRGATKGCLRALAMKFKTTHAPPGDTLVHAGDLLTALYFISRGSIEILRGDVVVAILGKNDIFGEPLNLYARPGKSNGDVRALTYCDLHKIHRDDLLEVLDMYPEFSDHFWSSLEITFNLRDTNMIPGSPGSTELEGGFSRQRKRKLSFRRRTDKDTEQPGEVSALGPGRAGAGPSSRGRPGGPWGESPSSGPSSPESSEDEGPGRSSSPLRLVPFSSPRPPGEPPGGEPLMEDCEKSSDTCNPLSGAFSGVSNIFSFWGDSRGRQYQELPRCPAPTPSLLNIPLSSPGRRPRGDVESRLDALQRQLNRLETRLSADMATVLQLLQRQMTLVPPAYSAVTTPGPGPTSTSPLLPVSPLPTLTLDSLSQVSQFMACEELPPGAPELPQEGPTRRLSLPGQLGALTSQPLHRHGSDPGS

Going from `Cc1cc(C)c(NC(=O)CC(=O)c2ccccc2)c(Cl)c1` to `O=C(NCCOc1ccccc1Cl)C(=O)Nc1ccccc1`, the “hERG current change (%, negative = inhibition) at 1uM” value falls from 10% to 3.74%.

Compared with `O=C(Nc1ccc(N2CCOCC2)cc1)c1cc2ccccc2o1`, `CN(Cc1ccccc1)C(=O)c1cc2ccccc2o1` is lower in “hERG current change (%, negative = inhibition) at 1uM” value: 13.7% for the first, 7.48% for the second.

Going from `COc1ccc(S(=O)(=O)N2CCCCC2)cc1NC(=O)C1CC1` to `CCN(C(=O)Cn1c(=O)oc2cc(S(=O)(=O)N3CCCC3)ccc21)c1ccc(OC)cc1`, the “hERG current change (%, negative = inhibition) at 1uM” value rises from 1.01% to 6.02%.

First: Nc1cc(S(=O)(=O)Nc2ccccc2Cl)ccc1N1CCCC1
Second: O=C(NNC1CC(=O)N(c2ccc(Cl)cc2)C1=O)c1ccccc1Cl (stereo not drawn)
The “hERG current change (%, negative = inhibition) at 1uM” value of the first is lower: 5.41% for the first, 13.8% for the second.

Going from `Cc1ccc(N(C(=O)c2csnn2)C(C(=O)NC2CCCCC2)c2ccco2)cc1` (stereo not drawn) to `Cc1ccc(C)c(N(C(=O)c2csnn2)C(C(=O)NC2CCCC2)c2cccnc2)c1` (stereo not drawn), the “hERG current change (%, negative = inhibition) at 1uM” value rises from 11.7% to 12.1%.

Compared with `Oc1ccccc1-c1n[nH]c(=S)n1Cc1ccccc1`, `O=C(O)c1ccc(C2SCC(=O)N2Cc2ccccc2)cc1` (stereo not drawn) is lower in “hERG current change (%, negative = inhibition) at 1uM” value: 18.9% for the first, 1.98% for the second.

Compared with `CCOc1ccc(/C(O)=C2/C(=O)C(=O)N(CCN(CC)CC)C2c2ccco2)cc1` (stereo not drawn), `CCCCOC(=O)CSc1nc(N)c(C#N)c(-c2ccc(OCC)cc2)c1C#N` is higher in “hERG current change (%, negative = inhibition) at 1uM” value: 1.22% for the first, 14% for the second.

Compared with `Cc1ccccc1Cn1cnc2c([N+](=O)[O-])c(C)c(C)cc21`, `COc1ccc(CN(C)C(=O)c2ccccc2OCc2c(C)noc2C)c(OC)c1` is higher in “hERG current change (%, negative = inhibition) at 1uM” value: 0.853% for the first, 5.14% for the second.

Compared with `COc1ccc(C(C#N)=C2C=CC(=NO)C=C2)cc1`, `C=C1c2ccccc2NC(=O)N1c1ccc(OC)cc1` is higher in “hERG current change (%, negative = inhibition) at 1uM” value: 5.59% for the first, 8.84% for the second.

First: O=C(Cc1cccs1)Nc1nnc(SCc2ccc(F)cc2)s1
Second: Cc1cccc(C)c1NC(=O)CSc1nnc(NC(=O)C2CC2)s1
The “hERG current change (%, negative = inhibition) at 1uM” value of the first is lower: 14.9% for the first, 20.8% for the second.

Going from `CCOC(=O)c1ccc(NC(=O)CSC(=S)N2CCOCC2)cc1` to `CCc1ccc(NC(=O)CCn2nc(C)c(S(=O)(=O)N3CCCCC3)c2C)cc1`, the “hERG current change (%, negative = inhibition) at 1uM” value rises from -8.55% to 4.67%.

Going from `O=C(CCC(=O)N1CCSc2ccccc21)NC1CCCCC1` to `COc1cc(C(=O)N2CCCCCCC2)ccc1OC1CCN(C(C)=O)CC1`, the “hERG current change (%, negative = inhibition) at 1uM” value rises from 2.59% to 5.09%.

Compared with `COc1ccc(C(=O)N2CCC(n3nnc4cc(F)ccc43)CC2)cc1OC`, `COc1cc2c(cc1OC)CN(C(=O)c1sccc1C)CC2` is higher in “hERG current change (%, negative = inhibition) at 1uM” value: -20.5% for the first, 8.88% for the second.

First: Cc1ccc(S(=O)(=O)N(Cc2cc3cccc(C)c3[nH]c2=O)c2ccccc2)cc1
Second: O=C(O)c1ccc2c(c1Sc1ccccc1)C(=O)c1ccccc1C2=O
The “hERG current change (%, negative = inhibition) at 1uM” value of the first is lower: 11.6% for the first, 12% for the second.

First: CC(C)C(C)NC(=O)COc1ccc(OCc2ccccc2)cc1 (stereo not drawn)
Second: Nc1nonc1-n1nnc(C(=O)N/N=C/c2ccc(OCc3ccccc3)cc2)c1COc1ccc(F)cc1
The “hERG current change (%, negative = inhibition) at 1uM” value of the first is higher: 4.32% for the first, 3.94% for the second.

Compared with `C=CCn1c(C(C)NC(=O)COC)nc2ccccc21` (stereo not drawn), `CC(C)CC(=O)Nc1ccc(-c2nc3ccccc3c(=O)o2)cc1` is lower in “hERG current change (%, negative = inhibition) at 1uM” value: 16.7% for the first, 0.334% for the second.

First: O=C(c1cc(-c2ccc(O)cc2)on1)N1CCc2ccccc2C1
Second: Cc1ccc(-c2nc(CC(=O)Nc3cccc(S(=O)(=O)NC4=NCCC4)c3)cs2)cc1
The “hERG current change (%, negative = inhibition) at 1uM” value of the first is lower: 3.87% for the first, 13% for the second.

First: CCOCCCNCC(=O)NC1(C)C2CCC(C2)C1(C)C.Cl (stereo not drawn)
Second: CCCCNC(=O)N1CCc2[nH]c3ccccc3c2C1
The “hERG current change (%, negative = inhibition) at 1uM” value of the first is lower: 8.93% for the first, 11.1% for the second.

Going from `Cc1cc(=O)n2c(C(=O)Nc3ccc(C)c(C)c3)c(C(=O)Nc3ccccc3)sc2n1` to `CN(CC(=O)Nc1cccc(F)c1)CC(=O)Nc1cccc([N+](=O)[O-])c1`, the “hERG current change (%, negative = inhibition) at 1uM” value falls from 11.2% to -10.4%.

Compared with `CC(C)(O)c1[nH]c2ccc(C(F)(F)F)cc2c1C(C)(C)O`, `COc1ccc(C(=O)COC(=O)[C@H](C)Nc2ccc(C(F)(F)F)cc2[N+](=O)[O-])c(OC)c1` is lower in “hERG current change (%, negative = inhibition) at 1uM” value: 14.6% for the first, 2.67% for the second.

First: COc1ccc(C(=O)NNC(=S)NC(=O)c2ccc(F)cc2)cc1Br
Second: Cc1ccc(NC(=O)c2ccc(F)cc2)nc1
The “hERG current change (%, negative = inhibition) at 1uM” value of the first is higher: 21.5% for the first, 13.4% for the second.

First: CCOC(=O)Nc1ccc(S(=O)(=O)NCc2ccccc2)cc1
Second: Cc1ccc(NC(=O)NCCc2ccc(S(N)(=O)=O)cc2)cc1
The “hERG current change (%, negative = inhibition) at 1uM” value of the first is lower: 10.2% for the first, 14.5% for the second.

Going from `Cc1ccc(NC(=O)c2c([N+](=O)[O-])c(C(C)(C)C)nn2C)c(C)c1` to `Cc1cc(C)nc(NC(=O)c2ccc(C)o2)n1`, the “hERG current change (%, negative = inhibition) at 1uM” value falls from 21.7% to 15.3%.

First: CC(=O)N1CCc2cc3nc(C)cc(C)c3cc21
Second: Cc1cc(C#N)c2ccccc2n1
The “hERG current change (%, negative = inhibition) at 1uM” value of the first is lower: -18.2% for the first, 12.6% for the second.

First: CCS(=O)(=O)c1ccc(O)c(NC(=O)/C=C/c2ccc(Cl)cc2)c1
Second: O=C([O-])/C=C/C(O)c1ccc(Cl)cc1.[Na+] (stereo not drawn)
The “hERG current change (%, negative = inhibition) at 1uM” value of the first is lower: -0.0214% for the first, 6.54% for the second.

Compared with `O=C(/C=C/c1ccccc1)c1c[nH]c2ccccc12`, `O=C(O)C(c1ccccc1)c1ccccc1` is higher in “hERG current change (%, negative = inhibition) at 1uM” value: 3.22% for the first, 12.3% for the second.

Compared with `CC(=O)NS(=O)(=O)c1ccc(NC(=O)C2C3C=CC(C3)C2C(=O)O)cc1` (stereo not drawn), `CCc1ccccc1NC(=O)N1C[C@H]2C[C@@H](C1)c1cccc(=O)n1C2` is higher in “hERG current change (%, negative = inhibition) at 1uM” value: 7.33% for the first, 8.75% for the second.

First: Cc1nc(NC(CC(C)C)C(=O)O)c2nc(C)oc2n1 (stereo not drawn)
Second: CCOC(=O)Cn1nnc(-c2ccc(OCC(C)C)cc2)n1
The “hERG current change (%, negative = inhibition) at 1uM” value of the first is lower: 0.536% for the first, 10.5% for the second.

Going from `COc1cc(-c2nc(CCNC(=O)c3ccco3)cs2)cc(OC)c1OC` to `COc1cc(CCC(=O)N2CCN(c3ccc(N4CCOCC4)nn3)CC2)cc(OC)c1OC`, the “hERG current change (%, negative = inhibition) at 1uM” value falls from 2.35% to 0.489%.

Compared with `O=C(OCc1cccc(F)c1)c1ccc2c(=O)n3c(nc2c1)CCC3`, `CCN(CC)CCOc1c(Br)ccc2c1sc1nc3n(c(=O)c12)CCC3` is lower in “hERG current change (%, negative = inhibition) at 1uM” value: 8.26% for the first, -1.07% for the second.

First: Cc1ccc(C(C#N)c2ccc(Cl)nn2)cc1 (stereo not drawn)
Second: CSc1ccc(-c2nnn(Cc3ccc(C)cc3)n2)cc1
The “hERG current change (%, negative = inhibition) at 1uM” value of the first is lower: 4.47% for the first, 16.5% for the second.

Compared with `COc1ccc(C(CNc2nc(-c3cccnc3)nc3ccccc23)N(C)C)cc1` (stereo not drawn), `COc1ccc(C(=O)Nn2c(SCc3ccc([N+](=O)[O-])cc3)nc3ccccc3c2=O)cc1` is higher in “hERG current change (%, negative = inhibition) at 1uM” value: -3.99% for the first, 7.24% for the second.

Going from `O=C1OC(Cc2ccccn2)C(O)=C1C1=NCCCCN1` (stereo not drawn) to `O=C(CSc1nc(-c2ccccc2)nc2c1CCCC2)N1CCOCC1`, the “hERG current change (%, negative = inhibition) at 1uM” value rises from -3.6% to 0.955%.

Going from `CCc1nnc(NC(=O)CCC(=O)N2CCN(Cc3ccc(OC)c(F)c3)CC2)s1` to `CCCN1CCN(CCNC(=O)Nc2cc(C)ccc2C)CC1`, the “hERG current change (%, negative = inhibition) at 1uM” value falls from 18.2% to -11.4%.

Compared with `CCOC(=O)C1(Cc2cccc(OC)c2)CCN(Cc2cccnc2)CC1`, `CCOC(=O)/C=C1\CN(Cc2ccc(OC)cc2)S(=O)(=O)c2ccccc21` is higher in “hERG current change (%, negative = inhibition) at 1uM” value: 11.5% for the first, 12.7% for the second.

Compared with `C/C(=N\NC(=S)NCc1ccccc1)c1ccc2c(c1)OCCO2`, `CCOc1cc(CNc2ccc3c(c2)OCCO3)cc(Br)c1OCC(N)=O` is higher in “hERG current change (%, negative = inhibition) at 1uM” value: -6.28% for the first, 1.92% for the second.

First: O=C(N/N=C/c1ccncc1)c1cc2ccccc2cc1O
Second: c1ccc2ccccc2c1
The “hERG current change (%, negative = inhibition) at 1uM” value of the first is lower: 4.63% for the first, 16% for the second.

Compared with `Cc1nc2c(c(=O)n1CCC(C)C)c1nc3ccccc3nc1n2Cc1ccc2c(c1)OCO2`, `CC1(C)c2[nH]c3ccccc3c2C[C@@H]2C(=O)N(Cc3ccc(F)cc3)C(=O)N21` is higher in “hERG current change (%, negative = inhibition) at 1uM” value: 2.46% for the first, 7.65% for the second.

Going from `Br.CCCCCCCCCn1ccc(=N)cc1` to `CC1CCCCN1CC(O)COCc1ccc(Cl)cc1` (stereo not drawn), the “hERG current change (%, negative = inhibition) at 1uM” value rises from -20.1% to 0.875%.

Compared with `C=CCN1C(=O)/C(=C\c2cc(Br)c(OCc3ccccn3)c(OC)c2)SC1=S`, `COc1ccc(C)c2sc(N(CCCN(C)C)C(=O)c3ccc(S(=O)(=O)N(C)C)cc3)nc12.Cl` is lower in “hERG current change (%, negative = inhibition) at 1uM” value: 11.6% for the first, -17.9% for the second.

First: N#Cc1c(-c2cccnc2)c2c([nH]c1=O)-c1ccccc1OC2
Second: O=C(NCCc1ccccc1Cl)c1ccc2nc3ccccc3c(=O)n2c1
The “hERG current change (%, negative = inhibition) at 1uM” value of the first is higher: 11.5% for the first, 10.5% for the second.

Compared with `C#CCn1c(S(=O)(=O)Cc2ccccc2Cl)nc(-c2ccccc2)c1-c1ccccc1`, `CCN(CC)c1ccc(/C=C/c2cc(-c3ccccc3)c3ccccc3n2)cc1` is higher in “hERG current change (%, negative = inhibition) at 1uM” value: 0.448% for the first, 5.82% for the second.

First: OCCC1CN(C2CCN(c3ccccc3F)CC2)CCN1Cc1ccccc1 (stereo not drawn)
Second: CCc1nnc(NC(=O)c2cc(-c3ccccc3)nn2-c2ccccc2)s1
The “hERG current change (%, negative = inhibition) at 1uM” value of the first is lower: -1.66% for the first, 7.49% for the second.

First: Cc1cc(C)cc(NC(=O)C2CCCN(S(=O)(=O)c3cnc[nH]3)C2)c1 (stereo not drawn)
Second: O=C(Nc1nnc(C2=COCCO2)o1)c1ccc(F)cc1
The “hERG current change (%, negative = inhibition) at 1uM” value of the first is lower: 0.609% for the first, 13.8% for the second.

Compared with `O=C1NC2NC(=O)N([N+](=O)[O-])C2N1` (stereo not drawn), `N#CC1=C2SCN(Cc3ccco3)CN2C(=O)CC1c1ccc(Cl)cc1` (stereo not drawn) is lower in “hERG current change (%, negative = inhibition) at 1uM” value: 15.4% for the first, 14.5% for the second.
